# Measurements published in the supplement of paper PMC8728848.
# Some of the results follow.
# B1: Clec18C (Homo sapiens) (protein)
# chain: MLHPETSPGRGHLLAVLLALLGTAWAEVWPPQLQEQAPMAGALNRKESFLLLSLHNRLRSWVQPPAADMRRLDWSDSLAQLAQARAALCGTPTPSLASGLWRTLQVGWNMQLLPAGLVSFVEVVSLWFAEGQRYSHAAGECARNATCTHYTQLVWATSSQLGCGRHLCSAGQAAIEAFVCAYSPRGNWEVNGKTIVPYKKGAWCSLCTASVSGCFKAWDHAGGLCEVPRNPCRMSCQNHGRLNISTCHCHCPPGYTGRYCQVRCSLQCVHGRLREEECSCVCDIGYGGAQCATKVHFPFHTCDLRIDGDCFMVSSEADTYYRARMKCQRKGGVLAQIKSQKVQDILAFYLGRLETTNEVIDSDFETRNFWIGLTYKTAKDSFRWATGEHQAFTSFAFGQPDNHGFGNCVELQASAAFNWNNQRCKTRNRYICQFAQEHISRWGPGS
# What was measured:
# Assay in all cases: glycan array binding signal (z-score within array); higher = stronger binding
# Settings in all cases: glycan notation: IUPAC condensed, linker removed
# [1] = target: Neu5Ac(a2-3)Gal(b1-3)[Fuc(a1-4)]GlcNAc
# How it was run: (§1)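 The binding signal is a Z-score computed within each array. Data were drawn from 3228 arrays in the Consortium for Functional Glycomics database, restricted to those with a known protein sequence. Scores were averaged over arrays of the same protein sequence at different concentrations or buffers, and over linkers, and negative values can be taken as non-binding.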
# [2] = target: Neu5Ac(a2-3)Gal(b1-3)[Fuc(a1-4)]GlcNAc(b1-3)Gal(b1-3)[Fuc(a1-4)]GlcNAc
# How it was run: as §1
# [3] = target: Neu5Ac(a2-3)Gal(b1-3)[Fuc(a1-4)]GlcNAc(b1-3)Gal(b1-4)[Fuc(a1-3)]GlcNAc
# How it was run: as §1
# [4] = target: Neu5Ac(a2-3)Gal(b1-3)[GlcNAc(b1-6)]GalNAc
# How it was run: as §1
# [5] = target: Neu5Ac(a2-3)Gal(b1-3)[Neu5Ac(a2-6)]GalNAc
# How it was run: as §1
# [6] = target: Neu5Ac(a2-3)Gal(b1-3)[Neu5Ac(a2-6)]GlcNAc(b1-3)[Fuc(a1-3)[Gal(b1-4)]GlcNAc(b1-6)]Gal(b1-4)Glc
# How it was run: as §1
# [7] = target: Neu5Ac(a2-3)Gal(b1-3)]Neu5Ac(a2-3)Gal(b1-4)]GlcNAc
# How it was run: as §1
# Neu5Ac(a2-3)Gal(b1-4)Glc = target: Neu5Ac(a2-3)Gal(b1-4)Glc
# How it was run: as §1
# [8] = target: Neu5Ac(a2-3)Gal(b1-4)GlcNAc
# How it was run: as §1
# [9] = target: Neu5Ac(a2-3)Gal(b1-4)GlcNAc(b1-2)Man
# How it was run: as §1
# [10] = target: Neu5Ac(a2-3)Gal(b1-4)GlcNAc(b1-2)Man(a1-3)[GlcNAc(b1-4)][Neu5Ac(a2-3)Gal(b1-4)GlcNAc(b1-2)Man(a1-6)]Man(b1-4)GlcNAc(b1-4)GlcNAc
# How it was run: as §1
# [11] = target: Neu5Ac(a2-3)Gal(b1-4)GlcNAc(b1-2)Man(a1-3)[Neu5Ac(a2-3)Gal(b1-4)GlcNAc(b1-2)Man(a1-6)]Man(b1-4)GlcNAc(b1-4)GlcNAc
# How it was run: as §1
# [12] = target: Neu5Ac(a2-3)Gal(b1-4)GlcNAc(b1-2)Man(a1-3)[Neu5Ac(a2-3)Gal(b1-4)GlcNAc(b1-2)Man(a1-6)]Man(b1-4)GlcNAc(b1-4)[Fuc(a1-6)]GlcNAc
# How it was run: as §1
# [13] = target: Neu5Ac(a2-3)Gal(b1-4)GlcNAc(b1-2)Man(a1-3)[Neu5Ac(a2-6)Gal(b1-4)GlcNAc(b1-2)Man(a1-6)]Man(b1-4)GlcNAc(b1-4)GlcNAc
# How it was run: as §1
# [14] = target: Neu5Ac(a2-3)Gal(b1-4)GlcNAc(b1-2)[Neu5Ac(a2-3)Gal(b1-4)GlcNAc(b1-4)]Man(a1-3)[GlcNAc(b1-4)][Neu5Ac(a2-3)Gal(b1-4)GlcNAc(b1-2)[Neu5Ac(a2-3)Gal(b1-4)GlcNAc(b1-6)]Man(a1-6)]Man(b1-4)GlcNAc(b1-4)GlcNAc
# How it was run: as §1
# [15] = target: Neu5Ac(a2-3)Gal(b1-4)GlcNAc(b1-2)[Neu5Ac(a2-3)Gal(b1-4)GlcNAc(b1-4)]Man(a1-3)[GlcNAc(b1-4)][Neu5Ac(a2-3)Gal(b1-4)GlcNAc(b1-4)Man(a1-6)]Man(b1-4)GlcNAc(b1-4)GlcNAc
# How it was run: as §1
# [16] = target: Neu5Ac(a2-3)Gal(b1-4)GlcNAc(b1-2)[Neu5Ac(a2-3)Gal(b1-4)GlcNAc(b1-6)]Man(a1-6)[Neu5Ac(a2-3)Gal(b1-4)GlcNAc(b1-2)Man(a1-3)]Man(b1-4)GlcNAc(b1-4)GlcNAc
# How it was run: as §1
# [17] = target: Neu5Ac(a2-3)Gal(b1-4)GlcNAc(b1-2)[Neu5Ac(a2-3)Gal(b1-4)GlcNAc(b1-6)]Man(a1-6)[Neu5Ac(a2-3)Gal(b1-4)GlcNAc(b1-2)Man(a1-3)][GlcNAc(b1-4)]Man(b1-4)GlcNAc(b1-4)GlcNAc
# How it was run: as §1
# [18] = target: Neu5Ac(a2-3)Gal(b1-4)GlcNAc(b1-3)Gal
# How it was run: as §1
# [19] = target: Neu5Ac(a2-3)Gal(b1-4)GlcNAc(b1-3)Gal(b1-3)GlcNAc
# How it was run: as §1
# [20] = target: Neu5Ac(a2-3)Gal(b1-4)GlcNAc(b1-3)Gal(b1-4)GlcNAc
# How it was run: as §1
# [21] = target: Neu5Ac(a2-3)Gal(b1-4)GlcNAc(b1-3)Gal(b1-4)GlcNAc(b1-2)Man(a1-3)[Neu5Ac(a2-3)Gal(b1-4)GlcNAc(b1-3)Gal(b1-4)GlcNAc(b1-2)Man(a1-6)]Man(b1-4)GlcNAc(b1-4)GlcNAc
# How it was run: as §1
# [22] = target: Neu5Ac(a2-3)Gal(b1-4)GlcNAc(b1-3)Gal(b1-4)GlcNAc(b1-3)Gal(b1-4)GlcNAc
# How it was run: as §1
# [23] = target: Neu5Ac(a2-3)Gal(b1-4)GlcNAc(b1-3)Gal(b1-4)GlcNAc(b1-3)Gal(b1-4)GlcNAc(b1-2)Man(a1-3)[Neu5Ac(a2-3)Gal(b1-4)GlcNAc(b1-3)Gal(b1-4)GlcNAc(b1-3)Gal(b1-4)GlcNAc(b1-2)Man(a1-6)]GalNAc
# How it was run: as §1
# [24] = target: Neu5Ac(a2-3)Gal(b1-4)GlcNAc(b1-3)Gal(b1-4)GlcNAc(b1-3)GalNAc
# How it was run: as §1
# [25] = target: Neu5Ac(a2-3)Gal(b1-4)GlcNAc(b1-3)Gal(b1-4)GlcNAc(b1-3)[Neu5Ac(a2-3)Gal(b1-4)GlcNAc(b1-3)Gal(b1-4)GlcNAc(b1-6)]GalNAc
# How it was run: as §1
# [26] = target: Neu5Ac(a2-3)Gal(b1-4)GlcNAc(b1-3)Gal(b1-4)GlcNAc(b1-6)[Gal(b1-3)]GalNAc
# How it was run: as §1
# [27] = target: Neu5Ac(a2-3)Gal(b1-4)GlcNAc(b1-3)Gal(b1-4)[Fuc(a1-3)]GlcNAc
# How it was run: as §1
# [28] = target: Neu5Ac(a2-3)Gal(b1-4)GlcNAc(b1-3)GalNAc
# How it was run: as §1
# [29] = target: Neu5Ac(a2-3)Gal(b1-4)GlcNAc(b1-3)[Neu5Ac(a2-3)Gal(b1-4)GlcNAc(b1-6)]GalNAc
# How it was run: as §1
binder,measurement,setting,value
B1,glycan array binding signal (z-score),[1],-0.506
same,glycan array binding signal (z-score),[2],-0.491
same,glycan array binding signal (z-score),[3],-0.276
same,glycan array binding signal (z-score),[4],-0.642
same,glycan array binding signal (z-score),[5],-0.524
same,glycan array binding signal (z-score),[6],-0.021
same,glycan array binding signal (z-score),[7],-0.528
same,glycan array binding signal (z-score),Neu5Ac(a2-3)Gal(b1-4)Glc,-0.357
same,glycan array binding signal (z-score),[8],-0.498
same,glycan array binding signal (z-score),[9],-0.08
same,glycan array binding signal (z-score),[10],-0.554
same,glycan array binding signal (z-score),[11],-0.489
same,glycan array binding signal (z-score),[12],-0.616
same,glycan array binding signal (z-score),[13],1.13
same,glycan array binding signal (z-score),[14],-0.577
same,glycan array binding signal (z-score),[15],-0.516
same,glycan array binding signal (z-score),[16],-0.29
same,glycan array binding signal (z-score),[17],-0.556
same,glycan array binding signal (z-score),[18],-0.482
same,glycan array binding signal (z-score),[19],-0.542
same,glycan array binding signal (z-score),[20],-0.529
same,glycan array binding signal (z-score),[21],-0.065
same,glycan array binding signal (z-score),[22],-0.457
same,glycan array binding signal (z-score),[23],-0.015
same,glycan array binding signal (z-score),[24],-0.604
same,glycan array binding signal (z-score),[25],-0.025
same,glycan array binding signal (z-score),[26],0.388
same,glycan array binding signal (z-score),[27],-0.596
same,glycan array binding signal (z-score),[28],-0.608
same,glycan array binding signal (z-score),[29],-0.439
